Reference: PubChem BioAssay AID330 (DTP/NCI, 2004)
Toxic doses and inconclusive results are not listed. Certain results were filed several times, with different values. The other results are left out here. An entry can have further records. Values that stand side by side are repeated measurements (runs, samples, wells, individuals or studies).

Tested on: P388 leukemia ip, CD2F1 mice, survival T/C
Assay: NCI In Vivo Anticancer Drug Screen. Data for tumor model P388 Leukemia (intraperitoneal) in CD2F1 (CDF1) mice
Settings: endpoint: median survival time, higher = longer survival
[1] = dose: 240.0 mg/kg/injection, schedule: Q01DX005 (ip), vehicle: saline with Tween-80

With `NCCCNCCCCNC(=O)C(O)NC(=O)CCCCCCN=C(N)N` (stereo unspecified) the T/C (dose: 25.0 mg/kg/injection, schedule: Q01DX005 (ip), vehicle: saline) was 95 % of control and 162 % of control.

For `COc1cc2c(cc1O)N=C[C@@H]1CCC(O)N1C2=O` (mixture of isomers), the T/C (dose: 4.0 mg/kg/injection, schedule: Q01DX009 (ip), vehicle: saline) was 97 % of control and 150 % of control.

`C/C1=C/C(C)C(O)C(O)C(=O)C2(C)CNC3=C(O2)C(=O)c2c(cc(C)c(O)c2C1=O)C3=O` (stereo unspecified) was tested, and the T/C (dose: 8.0 mg/kg/injection, schedule: Q01DX009 (ip), vehicle: distilled water + Tween-80) was 100 % of control, 103 % of control, 151 % of control.

For `Cc1[nH]c(=O)[nH]c(=O)c1/C=C/C(=O)NC(CO)CS(C)=O` (stereo unspecified), the T/C (dose: 32.0 mg/kg/injection, schedule: Q01DX009 (ip), vehicle: water) was 110 % of control, 118 % of control, 152 % of control.

For `Cc1cc(N2C(=O)CCSC2=S)ccc1Cl`, the T/C (dose: 100.0 mg/kg/injection, schedule: Q01DX009 (ip), vehicle: Klucel (hydroxypropylcellulose) (HPC)) was 124 % of control and 165 % of control.

In the case of `Nc1nc([Se]c2nc(N)nc3c2ncn3C2OC(CO)C(O)C2O)c2ncn(C3OC(CO)C(O)C3O)c2n1` (stereo unspecified), the T/C (dose: 200.0 mg/kg/injection, schedule: Q01DX005 (ip), vehicle: distilled water + Tween-80) is reported as 118 % of control and 151 % of control.

`CN(C)N=Nc1cn[nH]c1C(N)=O` was tested, and the T/C (dose: 100.0 mg/kg/injection, schedule: Q04DX003 (ip), vehicle: Klucel (hydroxypropylcellulose) (HPC)) was 122 % of control and 163 % of control and the T/C (dose: 400.0 mg/kg/injection, schedule: Q04DX003 (ip), vehicle: Klucel (hydroxypropylcellulose) (HPC)) was 93 % of control, 99 % of control, 165 % of control.

With `COc1cccc2c1C(=O)c1c(O)c3c(c(O)c1C2=O)C[C@@](O)(C(=O)CO)C[C@@H]3OC1CC(N)CC(C)O1` (stereo partly specified) the T/C (dose: 0.64 mg/kg/injection, schedule: Q04DX003 (ip), vehicle: saline) was 100 % of control and 175 % of control, the T/C (dose: 1.08 mg/kg/injection, schedule: Q04DX003 (ip), vehicle: saline) was 107 % of control and 181 % of control and the T/C (dose: 5.0 mg/kg/injection, schedule: Q04DX003 (ip), vehicle: saline) was 111 % of control and 171 % of control.

For `COc1cc(C2CC(C)(OC)Oc3cc4c(cc32)OCO4)cc(OC)c1OC` (stereo unspecified), the T/C [1] was 104 % of control and 167 % of control.

In the case of `O=C(O)/C=N/NS(=O)(=O)c1ccc2ccccc2c1`, the T/C (dose: 100.0 mg/kg/injection, schedule: Q01DX009 (ip), vehicle: other) is reported as 90 % of control and 196 % of control.

`O=C1C2C3C=CC(C2C(=O)N1CN1CCOCC1)C1C2C(=O)N(CN4CCOCC4)C(=O)C2C31` (stereo unspecified) was tested, and the T/C (dose: 100.0 mg/kg/injection, schedule: Q01DX009 (ip), vehicle: saline with Tween-80) was 120 % of control and 174 % of control.

With `CCc1nc(N)nc(N)c1-c1ccc(OC)c([N+](=O)[O-])c1` the T/C [1] was 119 % of control and 178 % of control.

In the case of `COc1cccc2c1C(=O)c1c(O)c3c(c(O)c1C2=O)C[C@@](O)(C(C)O)C[C@@H]3OC1CC(N(C)C)C(O)C(C)O1` (stereo partly specified), the T/C (dose: 0.39 mg/kg/injection, schedule: Q01DX009 (ip), vehicle: water) is reported as 118 % of control and 151 % of control.
